Laboratory results: the supplement of paper PMC5499739
Whole data set: some 16,000 sequences, median “Z-score” near -0.37, cut for the highest 2% near 3.1. Some of the results follow.

These sequences were tested on RBM10 RRM1-ZnF-RRM2 (GST-tagged construct) (assay: RNAcompete 7-mer binding Z-score; higher = stronger binding preference).
In short: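 GST-tagged RBM10 constructs (20 pmol) and a designed pool of 241 399 RNAs up to 41 nt (1.5 nmol) were allowed to bind for 30 min at 4°C in 1 ml Hepes pH 7.8 buffer with glutathione Sepharose beads. After four 2-min washes at 4°C, bound RNA was identified by microarray hybridisation. Enrichment was scored per heptamer motif as a one-sided Z-score across the probes containing it.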

Sequence | RNAcompete 7-mer binding Z-score
UUGUGAU | -0.457
UUGAAUG | -0.0743
GCAUUGC | -0.402
CACCAAA | -0.788
GAUCUAC | -0.766
CUUUCUC | -0.868
GCCACCG | -0.49
UCCUACA | -0.77
UCUUAUC | -0.752
UCAGAAC | -0.391
CACAAGG | 0.742
UGUCAUA | -0.541
UACAUCC | -0.672
UCCCAAU | -0.77
UCAGAAA | -0.0415
GAGCUCU | -0.712
UGCCAGU | -0.347
UCAUACA | -0.464
AACCUAU | -0.843
GCACCCC | -0.358
AGGCAGG | 1.77
GGCAAGU | 0.833
UGGCGAC | 0.935
CUUGCAA | -0.814
UACUGUA | -0.486

Sequence | RNAcompete 7-mer binding Z-score
CAGGACC | 0.0896
CCCAUGU | -0.77
AGACGGU | 0.476
CUUAUUA | -0.715
UUCGCUC | -0.69
ACCAUUU | -0.97
GGUAUAA | 1.16
GGGCAGC | 1.7
GUCGGCU | -0.0925
AUCGUUC | -0.61
UGCCUUA | -0.905
GGUUCCU | -0.289
ACGCCUG | -0.832
GGGGCCU | 0.523
GGAGAAG | 3.03
CUUGCCG | -1.03
UCACUUC | -0.901
GUUCACU | -0.617
AGGUGAG | 2.9
GAUUUCU | -0.73
CUCGCAA | -0.825
AUUUUAU | -0.704
UAGAAUC | -0.446
CCGUGGU | 0.228
GAAUUUG | 0.024

Sequence | RNAcompete 7-mer binding Z-score
GAGAGGG | 2.75
AUUACUG | -0.493
ACAAUGU | -0.0889
GUAGAAU | 0.53
GAUUUCA | -0.526
CGAUAUG | 0.0167
CACCUUU | -0.963
AUCACCA | -0.559
AGAGGAG | 1.7
CAGAAUA | -0.296
GUUAAUU | -0.337
GUAUUUA | -0.267
CGUUAGA | -0.293
UCCGUGC | -0.759
GCCAAAA | -0.417
AAUAUUC | -0.453
CAGCCGG | -0.264
CUCAGGA | -0.22
GUCCGUU | -0.559
AGCCGUU | -0.785
AAUUGAC | -0.103
GUGUCCU | -0.577
CGAUAUC | -0.5
CUCGAGA | -0.515
ACGGUCU | -0.726

Sequence | RNAcompete 7-mer binding Z-score
UACGGUG | 1.27
GCGUCAG | 0.0604
GACGUAA | 0.246
UCUUAGU | -0.537
GUGGAAU | 2.34
AAUAGGC | 0.924
GCACGGG | 2.3
GGGACUC | 0.825
CGUUCUG | -0.701
CUAAGAC | -0.602
CUUUAAC | -0.89
GCGAGAG | 1.25
UACUGAG | 0.0641
AACCUGA | -0.704
GUCAGGU | 1.01
AUACCAA | -0.202
CACUCGU | -0.683
UUUCACU | -0.704
GAACGUC | -0.566
GUAGAAG | 2.33
AUAAAAG | 0.0277
GCCUGGA | -0.541
AACCACG | -0.344
GCCUAAG | -0.526
CGCAAGA | -0.377

Sequence | RNAcompete 7-mer binding Z-score
AAGCCUG | -0.752
UGCGAAA | -0.078
CGCACGG | -0.0124
GCGAACA | 0.181
CAGCGGG | 2.5
CUAACGG | 0.177
CUUGUGU | -0.792
CCGUAGG | 0.891
CAUCGUC | -0.719
CGAAAAA | -0.326
CUCUAAG | -0.537
CAGGCUA | 0.406
AAGGCUA | 0.851
GAGCACA | -0.0161
CGGCAAU | 0.184
UGCAUCC | -0.621
UGUCGAU | -0.406
UGGGUUA | 2.83
UACUCAC | -0.653
UCACAUG | -0.377
AACACUA | -0.402
AGAUAUG | 0.891
GCGGGAU | 2.38
AAAACCU | -0.562
UAGUCCC | -0.653

Sequence | RNAcompete 7-mer binding Z-score
UCCUAUU | -0.901
AUUUUGA | -0.785
UUAGCGU | -0.541
CUUUUAG | -0.624
UCAUAGU | -0.249
CCUCCGA | -0.836
AACCGUC | -0.792
CUACCAG | -0.748
CAAGCUC | -0.581
CCUUUAG | -0.832
CUCUGAG | -0.697
CAGCCAU | -0.861
UAAUAGG | 0.742
GAAAGCC | -0.409
CACUGCG | -0.373
UAAUUAG | -0.311
CGACUGA | -0.406
CCUGGUU | -0.857
CGUCAAC | -0.581
UCACGCA | -0.653
UCAUGAC | -0.653
CGCCGCC | -0.69
UUUGGCG | -0.0561
GCGAGGG | 3.86
CCAUGAA | -0.439

Sequence | RNAcompete 7-mer binding Z-score
AACGGAU | 1.66
GGCUGCU | -0.278
CUAAUGU | -0.551
CACCGAC | -0.551
AAUUAAA | -0.555
UAGUGCU | -0.329
GUAAUCC | -0.337
UGAAACC | -0.686
UCUAUCC | -0.755
GAGAACU | -0.224
GGUUAGA | 2.57
CGGGUCG | 1.62
GGGACUU | 0.884
UAAUCAC | -0.471
UUGAGCA | -0.165
CGCGUAC | -0.573
ACGUUCA | -0.719
CCCGGCA | -0.653
CACCAUC | -0.734
GGCGCCC | -0.482
CAGAUGA | 0.0058
CGAUUAA | -0.493
AUUAGCG | -0.0379
GUGCGUA | 0.483
GCGUACA | 0.104

Sequence | RNAcompete 7-mer binding Z-score
UAGGCCA | 0.188
GGUCACC | -0.151
CGAAGGA | 1.62
AUCACGG | 0.0131
AUGUCAC | -0.599
UGAGGGC | 2.22
UCCGACC | -0.777
AGAGCGA | 0.581
GUUGGGU | 2.75
GGUCCCC | -0.151
ACAAUGC | -0.227
GCUAACC | -0.562
CAGGCUC | -0.424
CGUGCUC | -0.726
GAGAGUC | 0.352
ACCCCAU | -0.643
CAAUCGA | -0.147
AAUACGG | 0.931
GGAGGAG | 2.84
AAGGCAG | 2.66
GCCGCCG | -0.435
CGAAUAU | -0.395
GGUAUGA | 1.89
AGUAAGC | -0.0233
UGUAGGC | 0.512

Sequence | RNAcompete 7-mer binding Z-score
AGUCAAG | 0.232
CCCCGGG | 0.232
GAUUUUC | -0.686
GGACCAU | -0.00877
CACGGCC | -0.624
UCAUUCU | -0.752
ACAAAUC | -0.679
UUGAUAC | -0.457
AGCACAC | -0.522
ACAUUCU | -0.89
CCCGCUC | -0.65
CCCGUCG | -0.661
CCCAAGA | -0.653
AACAAAC | -0.213
CAGCCCA | -0.522
AGCCGUG | -0.395
UUGUCGC | -0.766
AAAGUUC | -0.646
AGUGAGG | 3.11
UUCUGCG | -0.577
AACGGAA | 1.91
UCGGGGA | 1.7
UUUCUUC | -0.679
UUGGCUA | -0.144
UAAUUGG | 0.49

Sequence | RNAcompete 7-mer binding Z-score
UUCUCCA | -0.755
GUAGAUC | -0.165
CUCAAUA | -0.712
AAGUGGC | 1.18
GUGCCCC | -0.147
GAACCGA | -0.0853
GUUUGUU | -0.0161
AUAGCUC | -0.533
CCGUAUG | -0.493
GUUCAAA | -0.544
GGGCCAU | 0.512
UUCCAUG | -0.344
UACUCCC | -0.908
CCCCGUA | -0.661
CUUGUAU | -0.774
GAAAUUU | -0.42
GGGGACG | 2.27
GACUCGA | -0.457
CGAGGAC | 0.731
UGAGCAU | -0.0634
UAUCAAU | -0.46
GUAUCUG | -0.46
AAGUGAU | 0.388
AUCGUAG | -0.114
AGGGCUC | 0.00944

Sequence | RNAcompete 7-mer binding Z-score
GGAUGGU | 3.73
AGCGACG | 0.65
AGUACGC | -0.468
UGCAGUG | 0.487
UAUUCAC | -0.774
CCAAGAU | -0.504
CUUUAGG | -0.369
UCUCUGU | -0.821
ACCGUCC | -0.897
AAAGGGG | 4.22
AACUAUG | -0.322
CAUCUCU | -0.945
CAAUGGU | 1.25
GUAUAAG | 0.913
UCAAGGU | 0.854
CGCGUAU | -0.366
GCUUGAG | -0.187
UUACCAG | -0.453
ACGUGGC | 0.428
ACCGGCU | -0.694
UGAUUGU | -0.566
UAUUGGG | 2.03
CCAAGCU | -0.697
CCGCACU | -0.897
UCUGUUG | -0.846

Sequence | RNAcompete 7-mer binding Z-score
GGCUGGG | 1.78
CUUCAUA | -0.81
ACGUAUG | 0.137
AAACUCC | -0.73
CUCUGCU | -0.967
CCCACAA | -0.803
UGACCAA | -0.00148
UCUACGA | -0.635
CGCCCCC | -0.53
GCACGAU | -0.0233
UGCAAAG | 0.294
AUCCGGA | -0.293
UAAGGUG | 2.07
UGCGAUA | 0.0459
CGUCCUG | -0.624
UUGACAU | -0.504
GCACAGG | 1.27
CGAUUGU | -0.643
AGAGCAA | 0.108
GACCACC | -0.548
CACGCUG | -0.205
CAAUGUA | -0.0415
UCCAACU | -0.843
CGUAUUU | -0.602
AGGGCUA | 1.17

Sequence | RNAcompete 7-mer binding Z-score
UCGUGUU | -0.468
CGGUGGG | 3.18
AAGCCUA | -0.675
CGAGGGA | 3.11
CUUAGCG | -0.77
AUACUAC | -0.621
CGAGUGC | -0.0816
AGGGUUA | 3.86
AUUGAUU | -0.431
UCCUUUG | -0.821
CCGCGCU | -0.664
UCGUGUA | -0.224
UCCGCAC | -0.755
CACGCUU | -0.883
AUCAUGA | -0.202
UCACCUA | -0.828
UUUCCUC | -0.795
GGCGAAA | 1.35
CGAUCCG | -0.628
UCGAACC | -0.664
CGGAGUU | 0.17
CGGUGGC | 1.61
AAAAAUG | 0.159
AAAAAGC | -0.118
UUUACAC | -0.759

Sequence | RNAcompete 7-mer binding Z-score
AGGAGCC | 0.239
CAGCCAC | -0.643
GAGGUUC | 0.268
AGUAAUG | 0.468
CAUACGU | -0.246
CGUUGCG | 0.00216
ACGCAGA | 0.359
ACACAAG | -0.264
CAGCACC | -0.377
AACAACU | -0.431
AAAGCCG | -0.577
UCCCUAG | -0.664
CUAGCGG | 0.406
UCAACUU | -0.792
GUUAUGA | 0.188
UUGCGAU | -0.406
CGGACGC | 0.479
GCUAGAA | -0.0525
UAGUCUA | -0.391
ACAUGCG | -0.0998
UUACUAA | -0.559
CGACCUU | -0.985
ACCGGAU | 0.00944
CACCCCC | -0.592
UUUCUGC | -0.876

Sequence | RNAcompete 7-mer binding Z-score
GCAUUGA | -0.118
UCGCGAA | -0.49
UUAACUA | -0.592
GCAUCUC | -0.701
ACUUAUC | -0.89
UUCCUUA | -0.763
CGUAUGU | -0.337
UCGCAAG | -0.482
CUAACAC | -0.664
ACGACAU | -0.0525
AGCCCAA | -0.686
GUCUAAG | -0.286
CCUUGGG | 0.268
CUUCGGG | 0.13
ACGUCGU | -0.242
UACCGCC | -0.832
CCAGCUU | -0.817
